Measurements published in PMC8874776.
These are yes or no findings as the source states them, for the method shown. Some binding calls cover weakened binding; strength is not graded here. Tags and fused reporters may be left off the sequences shown.

B1: full-length FSD1 in the vector pGADT7 (AD) (protein, UniProt P21276 1-212)
chain: MAASSAVTANYVLKPPPFALDALEPHMSKQTLEFHWGKHHRAYVDNLKKQVLGTELEGKPLEHIIHSTYNNGDLLPAFNNAAQAWNHEFFWESMKPGGGGKPSGELLALLERDFTSYEKFYEEFNAAAATQFGAGWAWLAYSNEKLKVVKTPNAVNPLVLGSFPLLTIDVWEHAYYLDFQNRRPDYIKTFMTNLVSWEAVSARLEAAKAASA
B2: full-length PHL3 in the vector pGADT7 (AD) (protein, UniProt Q8LAJ7 1-292)
chain: MYSAIRSSLPLDGSLGDYSDGTNLPIDACLVLTTDPKPRLRWTSELHERFVDAVTQLGGPDKATPKTIMRTMGVKGLTLYHLKSHLQKFRLGRQSCKESIDNSKDVSCVAESQDTGSSSTSSLRLAAQEQNESYQVTEALRAQMEVQRRLHEQLEVQRRLQLRIEAQGKYLQSILEKACKAIEEQAVAFAGLEAAREELSELAIKASITNGCQGTTSTFDTTKMMIPSLSELAVAIEHKNNCSAESSLTSSTVGSPVSAALMKKRQRGVFGNGDSVVVGHDAGWVMPSSSIG
B3: truncated VOZ1, VOZ1^96-310, in the vector pGADT7 (AD) (domain or fragment, UniProt Q9SGQ0 96-310)
chain: DEEDDATSKLAAPKPEPADQNLEAGKAAVFQRGYNLVQGKSEHGLPLVDNCKDLSLAAGNNFDGTAPLEYHQQYDLQQEFEPNFNGGFNNCPSYGVVEGPIHISNFIPTICPPPSAFLGPKCALWDCPRPAQGFDWFQDYCSSFHAALAFNEGPPGMNPVVRPGGIGLKDGLLFAALSAKAGGKDVGIPECEGAATAKSPWNAPELFDLTVLESE
B4: full-length VOZ1 in the vector pGADT7 (AD) (protein, UniProt Q9SGQ0 1-486)
chain: MTGKRSKTNCRSASHKLFKDKAKNRVDDLQGMLLDLQFARKESRPTDVTLLEEQVNQMLREWKSELNEPSPASSLQQGGTLGSFSSDICRLLQLCDEEDDATSKLAAPKPEPADQNLEAGKAAVFQRGYNLVQGKSEHGLPLVDNCKDLSLAAGNNFDGTAPLEYHQQYDLQQEFEPNFNGGFNNCPSYGVVEGPIHISNFIPTICPPPSAFLGPKCALWDCPRPAQGFDWFQDYCSSFHAALAFNEGPPGMNPVVRPGGIGLKDGLLFAALSAKAGGKDVGIPECEGAATAKSPWNAPELFDLTVLESETLREWLFFDKPRRAFESGNRKQRSLPDYNGRGWHESRKQIMVEFGGLKRSYYMDPQPLHHFEWHLYEYEINKCDACALYRLELKLVDGKKTSKGKVSNDSVADLQKQMGRLTAEFPPENNTTNTTNNNKRCIKGRPKVSTKVATGNVQNTVEQANDYGVGEEFNYLVGNLSDYYIP

target: PRU2 (PHOSPHATE RESPONSE UBIQUITIN E3 LIGASE 2), full length, in the bait vector pGBKT7 (BD) (Arabidopsis thaliana) (UniProt Q6NQG7); experiment: two-hybrid; pairwise test: preys in pGADT7 co-transformed with pGBKT7-PRU2 into yeast strain AH109, SD/-Leu/-Trp/-His medium

Row | Binder | binding
1 | B1 | binds
2 | B2 | binds
3 | B3 | binds
4 | B4 | no binding
